The values that follow come from a collection of fitness landscapes (doi:10.1016/j.celrep.2020.107928).

Whole data set: some 81,000 sequences, median “one-hybrid fitness for binding parS DNA” near -0.17, cut for the highest 2% near 0.51. The list shows a part of the results.

B1: Caulobacter ParB omega fusion; a variant is named by its letters at X, in order, B8GW30 (parent)
chain: MESVVVGEPGMSEGRRGLGRGLSALLGEVDAAPAQAPGEQLGGSREAPIEILQRNPDQPRRTFREEDLEDLSNSIREKGVLQPILVRPSPDTAGEYQIVAGERAWRAAQRAGLKTVPIMVRELDDLAVLEIGIIENVQRADLNVLEEALSYKVLMEKFERTQENIAQTIGKSXSHVANXMRLLXLPDEVQSYLVSGELTAXHARAIAAAADPVALAKQIIEGGLSVRETEALARKAPNLSAGKSKGGRPPRVKDTDTQALESDLSSVLGLDVSIDHRGSTGTLTITYATLEQLDDLCNRLTRGI

This experiment covers variants of B1. Description: one-hybrid fitness for binding parS DNA (scaled: cognate 1, non-cognate 0); higher = stronger binding. Conditions: with parS DNA site. In a few lines: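 Selection: bacterial one-hybrid in E. coli USO, HIS3 reporter with the site 19 bp from the promoter, 48 hours at 37°C on M9-minus-histidine plus 0.1 mM IPTG and 5 mM 3-AT. Libraries were Caulobacter ParB with four randomised specificity codons, sequenced on Illumina before and after selection. Fitness is the rescaled log change in variant-to-wild-type read ratio, anchored to the cognate and non-cognate sites.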
Take YVQC: the “one-hybrid fitness for binding parS DNA” value is not above 0.2.

On to PKYS, for which the “one-hybrid fitness for binding parS DNA” value was not above 0.2. The result for TVEL reads not above 0.2; that for DTFS, not above 0.2; that for QSEW, not above 0.2. HMTV: the “one-hybrid fitness for binding parS DNA” value was not above 0.2. For HVFC, the “one-hybrid fitness for binding parS DNA” value is not above 0.2. Take NHLL: the “one-hybrid fitness for binding parS DNA” value was not above 0.2. The value for PCQN was not above 0.2. The value for DTDR was not above 0.2.

As to EMRR, the “one-hybrid fitness for binding parS DNA” value is not above 0.2. The result for KPVD reads not above 0.2; that for PGQD, not above 0.2; that for DQWV, not above 0.2.

Turning to GWWT, the “one-hybrid fitness for binding parS DNA” value was not above 0.2. In the case of AHYE, the “one-hybrid fitness for binding parS DNA” value is not above 0.2.

Turning to RSVA, the “one-hybrid fitness for binding parS DNA” value is 0.515. The value for SNPL was not above 0.2. As to GVAP, the “one-hybrid fitness for binding parS DNA” value was not above 0.2.

Take INHS: the “one-hybrid fitness for binding parS DNA” value is not above 0.2. The value for LCPR was not above 0.2.

For the variant TEMF, the “one-hybrid fitness for binding parS DNA” value was not above 0.2. The value for CTSK was not above 0.2.

On to LGYE, for which the “one-hybrid fitness for binding parS DNA” value was not above 0.2. The value for SRMR was not above 0.2; that for TSYH was not above 0.2; that for KIRS was not above 0.2.

For the variant PGLN, the “one-hybrid fitness for binding parS DNA” value is not above 0.2. The value for QFVQ was not above 0.2. With PMCS, the “one-hybrid fitness for binding parS DNA” value is not above 0.2. In the case of WSSA, the “one-hybrid fitness for binding parS DNA” value is not above 0.2.

Turning to QSNH, the “one-hybrid fitness for binding parS DNA” value is not above 0.2. CGPA: the “one-hybrid fitness for binding parS DNA” value is not above 0.2. Take WFSI: the “one-hybrid fitness for binding parS DNA” value was not above 0.2. The result for QTPS reads not above 0.2. The result for KQQT reads not above 0.2; that for IQTA, not above 0.2; that for FRSR, not above 0.2. The result for KDPV reads not above 0.2; that for EALY, not above 0.2; that for NSEC, not above 0.2. On to SVPN, for which the “one-hybrid fitness for binding parS DNA” value was not above 0.2.

Consider ESGK, for which the “one-hybrid fitness for binding parS DNA” value is not above 0.2.

For the variant EAPK, the “one-hybrid fitness for binding parS DNA” value was not above 0.2. The value for CTYC was not above 0.2. The result for QCCS reads not above 0.2; that for FRVS, not above 0.2. The result for VQYS reads not above 0.2. For EAKA, the “one-hybrid fitness for binding parS DNA” value is not above 0.2. The result for EMLW reads not above 0.2.

Take INVG: the “one-hybrid fitness for binding parS DNA” value was not above 0.2. The value for VPSS was not above 0.2; that for KGIE was not above 0.2. The result for LYRT reads not above 0.2; that for IRRN, not above 0.2; that for FPPT, not above 0.2. On to AELG, for which the “one-hybrid fitness for binding parS DNA” value was not above 0.2.

As for KKYG, the “one-hybrid fitness for binding parS DNA” value is not above 0.2.

On to RGWC, for which the “one-hybrid fitness for binding parS DNA” value amounted to 0.504. The result for EIRT reads not above 0.2; that for QIQD, not above 0.2.

FWYL: the “one-hybrid fitness for binding parS DNA” value was not above 0.2.

With GQPC, the “one-hybrid fitness for binding parS DNA” value is not above 0.2. The value for LVHR was not above 0.2; that for QFLG was not above 0.2; that for DRKR was not above 0.2. The value for SDLS was not above 0.2; that for APNY was not above 0.2; that for FAET was not above 0.2. As for WMIC, the “one-hybrid fitness for binding parS DNA” value was not above 0.2. The value for RISP was 0.209; that for LTSG was not above 0.2. As to PHIA, the “one-hybrid fitness for binding parS DNA” value is not above 0.2.

In the case of IADT, the “one-hybrid fitness for binding parS DNA” value was not above 0.2. HKST: the “one-hybrid fitness for binding parS DNA” value is not above 0.2. The value for PKWL was not above 0.2; that for PFNL was not above 0.2; that for APID was not above 0.2. Turning to CHLG, the “one-hybrid fitness for binding parS DNA” value was not above 0.2. The value for THTV was not above 0.2; that for PYLR was not above 0.2; that for KRVW was not above 0.2. The result for TDVR reads not above 0.2; that for TENS, not above 0.2. Consider WSMC, for which the “one-hybrid fitness for binding parS DNA” value is not above 0.2. The result for NWLW reads not above 0.2.

On to ENLY, for which the “one-hybrid fitness for binding parS DNA” value is not above 0.2. In the case of CHTR, the “one-hybrid fitness for binding parS DNA” value was not above 0.2. Turning to SSRA, the “one-hybrid fitness for binding parS DNA” value is not above 0.2. The value for HWRT was not above 0.2. The result for KMKR reads not above 0.2; that for YVNP, not above 0.2; that for NDLE, not above 0.2. The result for QPSI reads not above 0.2; that for VPNN, not above 0.2. In the case of MTSF, the “one-hybrid fitness for binding parS DNA” value is not above 0.2. The result for AVTT reads not above 0.2; that for MNTL, not above 0.2; that for MFPT, not above 0.2.

Consider NFES, for which the “one-hybrid fitness for binding parS DNA” value was not above 0.2. The value for LYSN was not above 0.2; that for CMGC was not above 0.2; that for ARWG was not above 0.2. The value for YRLS was not above 0.2; that for GRTS was not above 0.2. The value for KENC was not above 0.2. HKGH: the “one-hybrid fitness for binding parS DNA” value is not above 0.2. Take HFLR: the “one-hybrid fitness for binding parS DNA” value was not above 0.2. As to KRCI, the “one-hybrid fitness for binding parS DNA” value was not above 0.2. The value for ITAS was not above 0.2. The result for RVLQ reads not above 0.2; that for PDHE, not above 0.2. DPGS: the “one-hybrid fitness for binding parS DNA” value is not above 0.2. The result for PTER reads not above 0.2; that for KFAS, not above 0.2. The result for MVLV reads not above 0.2; that for RKGI, not above 0.2; that for PPPK, not above 0.2. The value for CSDS was not above 0.2; that for CRLG was not above 0.2; that for IPPS was not above 0.2.

In the case of TCVR, the “one-hybrid fitness for binding parS DNA” value was not above 0.2. The result for PDDL reads not above 0.2; that for PLKA, not above 0.2; that for RCQH, 0.25. Consider SCIY, for which the “one-hybrid fitness for binding parS DNA” value is not above 0.2. The value for QPRC was not above 0.2; that for LYYT was not above 0.2. The result for FDDT reads not above 0.2; that for CMAG, not above 0.2. The value for VKIR was not above 0.2; that for HPKA was not above 0.2. Turning to WRCS, the “one-hybrid fitness for binding parS DNA” value is not above 0.2. As to PEAG, the “one-hybrid fitness for binding parS DNA” value was not above 0.2. The value for PQNM was not above 0.2. Consider YSHY, for which the “one-hybrid fitness for binding parS DNA” value was not above 0.2. The result for NVGN reads not above 0.2. As for GKPH, the “one-hybrid fitness for binding parS DNA” value is not above 0.2. The result for RRNM reads 0.656. The value for VYPY was not above 0.2. With AESS, the “one-hybrid fitness for binding parS DNA” value was not above 0.2. In the case of PGHY, the “one-hybrid fitness for binding parS DNA” value was not above 0.2. In the case of NGPR, the “one-hybrid fitness for binding parS DNA” value was not above 0.2. The result for QNVW reads not above 0.2. The value for KSRG was not above 0.2; that for RNAA was 0.456; that for PWYC was not above 0.2.

In the case of FGNR, the “one-hybrid fitness for binding parS DNA” value was not above 0.2. For KWYS, the “one-hybrid fitness for binding parS DNA” value is not above 0.2.

With QWYM, the “one-hybrid fitness for binding parS DNA” value is not above 0.2.

As for TFGN, the “one-hybrid fitness for binding parS DNA” value was not above 0.2.

Consider SNRK, for which the “one-hybrid fitness for binding parS DNA” value is not above 0.2. As to WVQG, the “one-hybrid fitness for binding parS DNA” value is not above 0.2.
